The subject of this assay is GT 1b/2a HCV. As to the kind of experiment: HCV cell culture infection assay (Renilla luciferase), GT 1b/2a. Conditions: at the highest concentration tested.

Molecules are shown by their SMILES.

The source of these data is paper PMC3335862, “Novel Small-Molecule Inhibitors of Hepatitis C Virus Entry Block Viral Spread and Promote Viral Clearance in Cell Culture” (PLoS ONE, 2012).

Consider `CS(=O)(=O)N1CCC(Nc2nc(Nc3cccc(C(F)(F)F)c3)nc(OCC(F)(F)F)n2)CC1` [PRO0371155], for which the “anti-viral activity against GT 1b/2a HCV” value is “no anti-viral activity”.
